In all, about 310,000 compounds went through this assay and about 14,000 (4.5%) showed an effect of 50% or more. The effect is printed as a negative number. The list shows a part of the results.
What follows are molecules tested against human ether-à-go-go-related gene (hERG) potassium channel (human, UniProt Q12809) (assay: primary screen, population patch clamp on CHO cells stably expressing hERG).
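Note: peak tail current of the secondary pulse compared with the same well before compound.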

Sequence of human ether-à-go-go-related gene (hERG) potassium channel (Q12809 whole entry, looked up): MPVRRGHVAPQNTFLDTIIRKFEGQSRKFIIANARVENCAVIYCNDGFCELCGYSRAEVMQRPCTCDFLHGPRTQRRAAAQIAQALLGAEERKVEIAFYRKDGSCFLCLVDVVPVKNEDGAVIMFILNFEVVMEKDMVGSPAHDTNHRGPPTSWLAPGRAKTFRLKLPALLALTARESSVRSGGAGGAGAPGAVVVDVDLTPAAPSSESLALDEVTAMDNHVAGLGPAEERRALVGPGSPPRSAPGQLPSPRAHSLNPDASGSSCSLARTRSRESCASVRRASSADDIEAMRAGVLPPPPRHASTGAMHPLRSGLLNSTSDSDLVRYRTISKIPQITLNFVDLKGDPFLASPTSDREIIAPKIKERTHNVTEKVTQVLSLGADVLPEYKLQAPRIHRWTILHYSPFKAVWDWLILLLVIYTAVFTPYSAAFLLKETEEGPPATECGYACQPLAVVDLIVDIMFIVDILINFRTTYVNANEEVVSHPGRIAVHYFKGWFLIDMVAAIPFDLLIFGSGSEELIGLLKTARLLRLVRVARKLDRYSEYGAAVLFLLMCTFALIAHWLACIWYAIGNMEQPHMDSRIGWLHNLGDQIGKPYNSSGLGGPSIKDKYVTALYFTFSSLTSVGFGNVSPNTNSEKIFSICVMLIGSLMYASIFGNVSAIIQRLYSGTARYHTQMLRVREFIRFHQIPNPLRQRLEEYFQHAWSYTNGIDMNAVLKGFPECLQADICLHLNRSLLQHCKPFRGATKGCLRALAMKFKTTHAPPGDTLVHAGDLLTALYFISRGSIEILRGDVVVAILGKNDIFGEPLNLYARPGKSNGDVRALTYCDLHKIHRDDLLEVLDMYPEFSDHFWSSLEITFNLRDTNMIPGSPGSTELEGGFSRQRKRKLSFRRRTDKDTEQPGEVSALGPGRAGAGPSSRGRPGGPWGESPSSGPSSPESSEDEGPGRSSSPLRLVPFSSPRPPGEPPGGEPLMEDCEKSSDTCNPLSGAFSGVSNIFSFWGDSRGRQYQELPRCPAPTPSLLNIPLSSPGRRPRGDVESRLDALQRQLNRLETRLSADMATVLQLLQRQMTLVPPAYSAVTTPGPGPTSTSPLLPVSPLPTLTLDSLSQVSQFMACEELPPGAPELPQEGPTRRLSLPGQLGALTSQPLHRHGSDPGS

In order of rising “hERG current change (%, negative = inhibition) at 10uM” value:
1. COc1ccc(CNc2cc(C)nc3ccc(OC)cc23)cc1  -72.8%
2. Cc1cc(C)c2nc3nc(C)cc(C)c3c(N)c2c1  -65.5%
3. CC(Sc1nnc(-c2cccs2)n1Cc1ccccc1)C(=O)NCc1ccc2c(c1)OCO2 (centres unmarked)  -55.9%
4. COc1cc(CN2CCN(C(O)(c3ccccc3)c3ccccc3)CC2)cc(OC)c1OC.O=C(O)C(=O)O  -55.1%
5. Cc1cccc(CSCCNC(=O)CSCc2ccc([N+](=O)[O-])cc2)c1  -47.8%
6. COC(=O)C1=NN(c2ccccc2)C2(S1)SC(C(C)=O)=C(C)N2c1ccccc1 (centres unmarked)  -46.1%
7. COc1cccc(NC(=S)N2CCCN(Cc3ccc(F)cc3)C2)c1  -42.7%
8. CCCC(=O)Nc1cc(-c2nn(C)c(=O)c3ccccc23)ccc1N1CCCCC1  -34.5%
9. O=C(Nc1cc([N+](=O)[O-])ccc1N1CCCC1)c1ccco1  -34.5%
10. CCN(CC)S(=O)(=O)c1ccc2c(c1)nc(SCC(=O)N1CCOCC1)n2-c1ccccc1OC  -31.1%
11. COc1ccc(N(CCCN2C(=O)c3cccc4cccc(c34)C2=O)C(=O)c2cccnc2)cc1  -28.7%
12. Cc1cc(C)cc(C(=O)NCC(=O)OCc2cc([N+](=O)[O-])cc3c2OCOC3)c1  -21%
13. CCOC(=O)N1CCC(NC(=O)CSCc2nc(-c3cccc(OC)c3)oc2C)CC1  -17.6%
14. O=C(NCCc1ccc(Cl)cc1)C1CCN(S(=O)(=O)c2ccc(Br)s2)CC1  -12.8%
15. Cc1ccc(-c2nc3ccccc3c(=O)n2CCN2CCOCC2)cc1  -12.1%
16. O=C(CCNC(=O)c1ccccc1Cl)NCc1cccnc1  -10.5%
17. N#Cc1c(-c2ccco2)cc(-c2cccnc2)nc1N  -9.61%
18. Cc1ccc(S(=O)(=O)N(CCO)c2cc3c(s2)CCCC3)cc1  -6.05%
19. COc1ccc(CCNC(=O)c2cnc3n(c2=O)CCS3)cc1OC  -5.87%
20. Cc1nn(-c2ccccc2)c2[nH]c(=O)cc(C(F)F)c12  -5.67%
21. Cc1ccc(S(=O)(=O)N2CCN(c3ccc(N4CCOCC4)nn3)CC2)cc1[N+](=O)[O-]  -4.74%
22. Cc1ccccc1CSCC(=O)NCCSc1ccccn1  -3.24%
23. O=C(Cc1ccccc1)Nc1ccccc1Sc1ccccc1  -2.63%
24. CC(C)N1CC(COc2ccccc2Cl)OC1=O (centres unmarked)  -2.26%
25. CC(C)=C1C2CCC1C1C(=O)N(c3nc(-c4ccc(F)cc4)c(C)s3)C(=O)C21 (centres unmarked)  -1.44%
26. C=CCN1CCN(C(c2ccccc2OC)c2nnnn2C(C)(C)C)CC1.Cl (centres unmarked)  -0.19%
27. O=C(CS(=O)CC(=O)N(CC(=O)NC1CCCC1)c1ccccc1F)Nc1ccc(F)cc1 (centres unmarked)  -0.187%
28. O=C(COc1ccc(C(=S)N2CCCC2)cc1)Nc1ccccc1C(F)(F)F  0.616%
29. C[C@@H]1O[C@@H]1P(=O)([O-])[O-].[Na+]  1.81%
30. C=CCN(C(=O)c1ccc2c(c1)nnn2C)c1ccccc1  2.1%
31. COc1cccc(C2=NCCc3cc4c(cc32)OCO4)c1OC  2.12%
32. O=C1CCCc2c1sc1nc3n(c(=O)c21)CCCCC3  3.11%
33. C=C(C)c1cccc(C(C)(C)NC(=O)Nc2ccc(C(N)=O)cc2)c1  3.53%
34. O=C(Nc1ccc(Cl)cn1)c1cccc2c(Br)cccc12  4.17%
35. NS(=O)(=O)c1ccc(CNS(=O)(=O)c2ccc3c(c2)OCCO3)cc1  4.28%
36. O=C(CNc1ccccc1)c1ccc([N+](=O)[O-])cc1  4.43%
37. Clc1ccc(N2CCN(c3ncnc4c3oc3ccccc34)CC2)cc1  4.58%
38. CCOC(=O)N1CCC(Nc2c(NCCCN3CCN(CC)CC3)c(=O)c2=O)CC1  5.08%
39. CCCCCCSc1nc(O)c(C2OC(=O)c3c2ccc(OC)c3OC)c(=O)n1CC (centres unmarked)  5.41%
40. O/N=C/c1ccc(OCc2ccccc2)c(Cl)c1  5.8%
41. CCc1c(O)nc(N2CCN(Cc3ccccc3)CC2)[nH]c1=O  5.8%
42. COc1ccc(/C=C/C(=O)NC(=S)NNC(=O)[C@H]2C[C@@H]2c2ccccc2)cc1OC  6.04%
43. O=C(CSCc1ccc(Cl)cc1)Nc1nccs1  6.08%
44. COCCNC(=O)c1onc(CSc2ccccc2)c1C(=O)NCCOC  7.75%
45. COCCN1CCN(C(=O)C2CCC(=O)N(CCc3cccc(F)c3)C2)CC1 (centres unmarked)  9.41%
46. CCc1cccc(NC(=O)CCCCCC2NC(=O)NC2C)c1 (centres unmarked)  9.76%
47. CCC(CC)n1[nH]c(=O)c2c(C)cc(C)nc21  10.7%
48. Cc1ccc(CNC(=O)C2CC(=O)N(c3ccc(OCC(=O)N4CCCC4)cc3)C2)cc1 (centres unmarked)  13.3%
49. COc1ccc(NC(=O)c2cccc(N3C(=O)C4C5CCC(C5)C4C3=O)c2)cc1 (centres unmarked)  13.9%
50. O=C(N/N=C1\CC2CC=CC12)c1ccc(O)cc1 (centres unmarked)  14.7%
51. CN(C)c1ccc(/C=N/Nc2nncc3ccccc23)cc1  15.4%
52. c1ccc(CCNc2cnccn2)cc1  21.2%
53. S=c1nc[nH]c2c1cnn2Cc1ccccc1  21.8%
54. CC1(C)CC[C@]2(C(=O)O)CC[C@]3(C)C(=CCC4[C@@]5(C)CC[C@H](O)C(C)(C)C5CC[C@]43C)C2C1 (some centres unmarked)  29.1%
55. CCOC(=O)c1ccc(NC(=O)NNC(=O)CCc2ccc(OC)cc2)cc1  30.1%
56. Cc1ccc2nc(-c3ccc(NC(=O)CSCC(=O)O)cc3)sc2c1  30.7%

Reference: publication PMC4336329 (PLoS ONE, 2015)
